# The other results are listed elsewhere or left out.
# Legend:
# Assay in all cases: glycan array binding signal (z-score within array); higher = stronger binding
# Details in all cases: glycan notation: IUPAC condensed, linker removed
# [1] = target: Fuc(a1-2)Gal6S(b1-3)GlcNAc
# Procedure, shortened: (§1)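 Arrays were curated from the Consortium for Functional Glycomics database, 3228 in total, and kept only where the protein sequence was available. Binding is expressed as a within-array Z-score. This score was averaged across arrays of the same protein sequence at different concentrations or buffers and across linkers, and negative values can be read as non-binding.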
# [2] = target: Fuc(a1-2)Gal6S(b1-3)GlcNAc6S
# Procedure, shortened: as §1
# Fuc(a1-2)Gal6S(b1-4)Glc = target: Fuc(a1-2)Gal6S(b1-4)Glc
# Procedure, shortened: as §1
# [3] = target: Fuc(a1-2)Gal6S(b1-4)Glc6S
# Procedure, shortened: as §1
# Fuc(a1-2)[Gal(a1-3)]Gal = target: Fuc(a1-2)[Gal(a1-3)]Gal
# Procedure, shortened: as §1
# [4] = target: Fuc(a1-2)[Gal(a1-3)]Gal(b1-3)GalNAc
# Procedure, shortened: as §1
# [5] = target: Fuc(a1-2)[Gal(a1-3)]Gal(b1-3)GalNAc(b1-3)Gal(a1-4)Gal(b1-4)Glc
# Procedure, shortened: as §1
# [6] = target: Fuc(a1-2)[Gal(a1-3)]Gal(b1-3)GlcNAc
# Procedure, shortened: as §1
# [7] = target: Fuc(a1-2)[Gal(a1-3)]Gal(b1-3)GlcNAc(b1-2)Man(a1-3)[Fuc(a1-2)[Gal(a1-3)]Gal(b1-3)GlcNAc(b1-2)Man(a1-6)]Man(b1-4)GlcNAc(b1-4)GlcNAc
# Procedure, shortened: as §1
# [8] = target: Fuc(a1-2)[Gal(a1-3)]Gal(b1-3)GlcNAc(b1-2)Man(a1-3)[Fuc(a1-2)[Gal(a1-3)]Gal(b1-3)GlcNAc(b1-2)Man(a1-6)]Man(b1-4)GlcNAc(b1-4)[Fuc(a1-6)]GlcNAc
# Procedure, shortened: as §1
# [9] = target: Fuc(a1-2)[Gal(a1-3)]Gal(b1-3)GlcNAc(b1-3)GalNAc
# Procedure, shortened: as §1
# [10] = target: Fuc(a1-2)[Gal(a1-3)]Gal(b1-3)GlcNAc(b1-6)GalNAc
# Procedure, shortened: as §1
# [11] = target: Fuc(a1-2)[Gal(a1-3)]Gal(b1-4)Glc
# Procedure, shortened: as §1
# [12] = target: Fuc(a1-2)[Gal(a1-3)]Gal(b1-4)GlcNAc
# Procedure, shortened: as §1
# [13] = target: Fuc(a1-2)[Gal(a1-3)]Gal(b1-4)GlcNAc(b1-2)Man
# Procedure, shortened: as §1
# [14] = target: Fuc(a1-2)[Gal(a1-3)]Gal(b1-4)GlcNAc(b1-2)Man(a1-3)[Fuc(a1-2)[Gal(a1-3)]Gal(b1-4)GlcNAc(b1-2)Man(a1-6)]Man(b1-4)GlcNAc(b1-4)GlcNAc
# Procedure, shortened: as §1
# [15] = target: Fuc(a1-2)[Gal(a1-3)]Gal(b1-4)GlcNAc(b1-2)Man(a1-3)[Fuc(a1-2)[Gal(a1-3)]Gal(b1-4)GlcNAc(b1-2)Man(a1-6)]Man(b1-4)GlcNAc(b1-4)[Fuc(a1-6)]GlcNAc
# Procedure, shortened: as §1
# [16] = target: Fuc(a1-2)[Gal(a1-3)]Gal(b1-4)GlcNAc(b1-3)GalNAc
# Procedure, shortened: as §1
# [17] = target: Fuc(a1-2)[Gal(a1-3)]Gal(b1-4)GlcNAc(b1-3)[Fuc(a1-2)[Gal(a1-3)]Gal(b1-4)GlcNAc(b1-6)]GalNAc
# Procedure, shortened: as §1
# [18] = target: Fuc(a1-2)[Gal(a1-3)]Gal(b1-4)GlcNAc(b1-6)GalNAc
# Procedure, shortened: as §1
# [19] = target: Fuc(a1-2)[Gal(a1-3)]Gal(b1-4)[Fuc(a1-3)]Glc
# Procedure, shortened: as §1
# [20] = target: Fuc(a1-2)[Gal(a1-3)]Gal(b1-4)[Fuc(a1-3)]GlcNAc
# Procedure, shortened: as §1
# [21] = target: Fuc(a1-2)[Gal(a1-3)]Gal(b1-4)[Fuc(a1-3)]GlcNAc(b1-3)GalNAc
# Procedure, shortened: as §1
# [22] = target: Fuc(a1-2)[Gal(a1-4)]Gal(b1-4)GlcNAc
# Procedure, shortened: as §1
# [23] = target: Fuc(a1-2)[GalNAc(a1-3)]Gal
# Procedure, shortened: as §1
# [24] = target: Fuc(a1-2)[GalNAc(a1-3)]Gal(b1-3)GalNAc(a1-3)[Fuc(a1-2)]Gal(b1-4)GlcNAc
# Procedure, shortened: as §1
# [25] = target: Fuc(a1-2)[GalNAc(a1-3)]Gal(b1-3)GalNAc(b1-3)Gal(a1-4)Gal(b1-4)Glc
# Procedure, shortened: as §1
# [26] = target: Fuc(a1-2)[GalNAc(a1-3)]Gal(b1-3)GlcNAc
# Procedure, shortened: as §1
# [27] = target: Fuc(a1-2)[GalNAc(a1-3)]Gal(b1-3)GlcNAc(b1-2)Man(a1-3)[Fuc(a1-2)[GalNAc(a1-3)]Gal(b1-3)GlcNAc(b1-2)Man(a1-6)]Man(b1-4)GlcNAc(b1-4)GlcNAc
# Procedure, shortened: as §1
# [28] = target: Fuc(a1-2)[GalNAc(a1-3)]Gal(b1-3)GlcNAc(b1-2)Man(a1-3)[Fuc(a1-2)[GalNAc(a1-3)]Gal(b1-3)GlcNAc(b1-2)Man(a1-6)]Man(b1-4)GlcNAc(b1-4)[Fuc(a1-6)]GlcNAc
# Procedure, shortened: as §1
# [29] = target: Fuc(a1-2)[GalNAc(a1-3)]Gal(b1-3)GlcNAc(b1-3)GalNAc
# Procedure, shortened: as §1
# [30] = target: Fuc(a1-2)[GalNAc(a1-3)]Gal(b1-3)GlcNAc(b1-6)GalNAc
# Procedure, shortened: as §1
# [31] = target: Fuc(a1-2)[GalNAc(a1-3)]Gal(b1-4)Glc
# Procedure, shortened: as §1
# [32] = target: Fuc(a1-2)[GalNAc(a1-3)]Gal(b1-4)GlcNAc
# Procedure, shortened: as §1
# [33] = target: Fuc(a1-2)[GalNAc(a1-3)]Gal(b1-4)GlcNAc(b1-2)Man
# Procedure, shortened: as §1
# [34] = target: Fuc(a1-2)[GalNAc(a1-3)]Gal(b1-4)GlcNAc(b1-2)Man(a1-3)[Fuc(a1-2)[GalNAc(a1-3)]Gal(b1-4)GlcNAc(b1-2)Man(a1-6)]Man(b1-4)GlcNAc(b1-4)GlcNAc
# Procedure, shortened: as §1
# [35] = target: Fuc(a1-2)[GalNAc(a1-3)]Gal(b1-4)GlcNAc(b1-2)Man(a1-3)[Fuc(a1-2)[GalNAc(a1-3)]Gal(b1-4)GlcNAc(b1-2)Man(a1-6)]Man(b1-4)GlcNAc(b1-4)[Fuc(a1-6)]GlcNAc
# Procedure, shortened: as §1
# [36] = target: Fuc(a1-2)[GalNAc(a1-3)]Gal(b1-4)GlcNAc(b1-3)Gal(b1-4)GlcNAc
# Procedure, shortened: as §1
# [37] = target: Fuc(a1-2)[GalNAc(a1-3)]Gal(b1-4)GlcNAc(b1-3)Gal(b1-4)GlcNAc(b1-3)Gal(b1-4)GlcNAc
# Procedure, shortened: as §1
# [38] = target: Fuc(a1-2)[GalNAc(a1-3)]Gal(b1-4)GlcNAc(b1-3)GalNAc
# Procedure, shortened: as §1
# [39] = target: Fuc(a1-2)[GalNAc(a1-3)]Gal(b1-4)GlcNAc(b1-3)[Fuc(a1-2)[GalNAc(a1-3)]Gal(b1-4)GlcNAc(b1-6)]GalNAc
# Procedure, shortened: as §1
# [40] = target: Fuc(a1-2)[GalNAc(a1-3)]Gal(b1-4)GlcNAc(b1-6)GalNAc
# Procedure, shortened: as §1
# [41] = target: Fuc(a1-2)[GalNAc(a1-3)]Gal(b1-4)[Fuc(a1-3)]GlcNAc
# Procedure, shortened: as §1
# [42] = target: Fuc(a1-2)[GalNAc(a1-3)]Gal(b1-4)[Fuc(a1-3)]GlcNAc(b1-3)GalNAc
# Procedure, shortened: as §1
# [43] = target: Fuc(a1-2)[GalNAc(a1-4)]Gal(b1-4)GlcNAc
# Procedure, shortened: as §1
binder,measurement,setting,value
"Epa6 (Candida glabrata), Q6DTM7_CANGB (protein) MGSSHHHHHHSSGLVPRGSHMKDDYSSSLSNNNLGWTDPTEFPLGCSPNVTTPKNGLSMELYSYDYLKSGSNPCWDAAYLDPNYPRTGYKSHRLLAKVENVAGNINFYYHAPMGCTSLFDTLPQAYNYRTPLTMTNFTMLLYGYFKPKVTGYHTFTISADDLLFVNFGAGNAFDCCKRESSADDFGNYQAYAVWGSQTAKDDLTVHLDAGLYYPIRIFFNNRDNDGALSLTLKTESDPNPVIDFSDYFYSFDDTKDGCPGLVSYDTS",glycan array binding signal (z-score),[1],-0.283
same,glycan array binding signal (z-score),[2],-0.231
same,glycan array binding signal (z-score),Fuc(a1-2)Gal6S(b1-4)Glc,-0.209
same,glycan array binding signal (z-score),[3],-0.272
same,glycan array binding signal (z-score),Fuc(a1-2)[Gal(a1-3)]Gal,0.602
same,glycan array binding signal (z-score),[4],0.108
same,glycan array binding signal (z-score),[5],-0.034
same,glycan array binding signal (z-score),[6],0.317
same,glycan array binding signal (z-score),[7],0.454
same,glycan array binding signal (z-score),[8],-0.051
same,glycan array binding signal (z-score),[9],0.138
same,glycan array binding signal (z-score),[10],-0.074
same,glycan array binding signal (z-score),[11],0.484
same,glycan array binding signal (z-score),[12],1.09
same,glycan array binding signal (z-score),[13],0.197
same,glycan array binding signal (z-score),[14],0.627
same,glycan array binding signal (z-score),[15],-0.005
same,glycan array binding signal (z-score),[16],0.226
same,glycan array binding signal (z-score),[17],0.469
same,glycan array binding signal (z-score),[18],-0.287
same,glycan array binding signal (z-score),[19],-0.264
same,glycan array binding signal (z-score),[20],-0.067
same,glycan array binding signal (z-score),[21],-0.12
same,glycan array binding signal (z-score),[22],2.64
same,glycan array binding signal (z-score),[23],-0.314
same,glycan array binding signal (z-score),[24],-0.139
same,glycan array binding signal (z-score),[25],-0.303
same,glycan array binding signal (z-score),[26],-0.294
same,glycan array binding signal (z-score),[27],-0.297
same,glycan array binding signal (z-score),[28],-0.329
same,glycan array binding signal (z-score),[29],-0.163
same,glycan array binding signal (z-score),[30],-0.273
same,glycan array binding signal (z-score),[31],-0.298
same,glycan array binding signal (z-score),[32],-0.298
same,glycan array binding signal (z-score),[33],-0.35
same,glycan array binding signal (z-score),[34],-0.336
same,glycan array binding signal (z-score),[35],-0.27
same,glycan array binding signal (z-score),[36],-0.296
same,glycan array binding signal (z-score),[37],-0.265
same,glycan array binding signal (z-score),[38],-0.306
same,glycan array binding signal (z-score),[39],-0.239
same,glycan array binding signal (z-score),[40],-0.291
same,glycan array binding signal (z-score),[41],-0.219
same,glycan array binding signal (z-score),[42],0.422
same,glycan array binding signal (z-score),[43],-0.32

# From the supplement of paper PMC8728848
